Paper PMC6919601, “Identification of Plasmodium dipeptidyl aminopeptidase allosteric inhibitors by high throughput screening” (PLoS ONE, 2019)
Where “and” joins values, the source holds several entries; their conditions need not be identical. Equal values may be shown once. Screen size: about 110,000 compounds; about 230 (0.21%) showed an effect of 50% or more. Some of the results follow.

Target: DPAP1 (Plasmodium falciparum, UniProt Q8IIJ9)
Test: primary screen, percent inhibition; read by cleavage of a fluorogenic dipeptide substrate; higher = more effect of the substance
Design: species or system P. falciparum D10 trophozoite lysates; single well
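Further: 30 min substrate incubation versus DMSO and 10 µM JCP410 controls.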

DPAP1, sequence (Q8IIJ9 whole entry, looked up): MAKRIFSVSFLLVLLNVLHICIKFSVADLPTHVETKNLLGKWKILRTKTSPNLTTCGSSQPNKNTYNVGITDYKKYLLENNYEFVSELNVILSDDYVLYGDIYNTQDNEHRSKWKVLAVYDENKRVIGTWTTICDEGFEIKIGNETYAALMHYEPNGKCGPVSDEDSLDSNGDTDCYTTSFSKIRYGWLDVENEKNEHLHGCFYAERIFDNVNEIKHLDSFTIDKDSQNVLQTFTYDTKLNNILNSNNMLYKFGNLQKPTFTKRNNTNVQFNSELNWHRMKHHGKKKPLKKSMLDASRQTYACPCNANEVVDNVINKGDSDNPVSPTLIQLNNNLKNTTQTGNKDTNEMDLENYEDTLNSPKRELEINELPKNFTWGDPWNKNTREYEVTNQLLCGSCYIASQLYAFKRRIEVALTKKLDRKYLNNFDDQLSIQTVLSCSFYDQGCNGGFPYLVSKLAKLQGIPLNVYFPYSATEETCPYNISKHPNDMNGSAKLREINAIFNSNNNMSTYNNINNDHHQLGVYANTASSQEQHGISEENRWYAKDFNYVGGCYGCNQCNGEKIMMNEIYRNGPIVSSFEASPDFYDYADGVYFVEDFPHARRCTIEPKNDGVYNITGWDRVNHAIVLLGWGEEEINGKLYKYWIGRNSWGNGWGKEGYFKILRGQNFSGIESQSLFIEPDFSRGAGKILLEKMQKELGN

**Q.** With `O=C(O)C1(c2ccccc2)CCN(Cc2ccccc2)CC1` as the compound, how does the “% Inhibition @ 10 uM” value read?
**A.** -1.33%

**Q.** How did the “% Inhibition @ 10 uM” value turn out when `O=C(CCCN1C(=O)c2ccccc2C1=O)N1CCCCC1` was run?
**A.** -2.17%

**Q.** `N#Cc1nc(-c2ccc(F)cc2)oc1N1CCCCC1` was tested. Which “% Inhibition @ 10 uM” value did it give?
**A.** -3.14%

**Q.** With `Cc1ccc(C)c(CNC(=O)c2nc(O)c3nnn(CC4CCCO4)c3n2)c1` (centres unmarked) as the compound, how does the “% Inhibition @ 10 uM” value read?
**A.** -5.51%

**Q.** How did the “% Inhibition @ 10 uM” value turn out when `Cc1ccnn1CCC(=O)O` was run?
**A.** -2.28%

**Q.** Which “% Inhibition @ 10 uM” value does the source give for `CCc1nnc(SCC(=O)N(C)C2CCCCC2)c2cc3sc(C)cc3n12` here?
**A.** -12.3%

**Q.** For `COCCCN1CN(Cc2ccco2)CNC1=S`, which “% Inhibition @ 10 uM” value is on record?
**A.** -9.59%

**Q.** For `CC1CCC2C(=O)N(CNc3ccc(Cc4ccncc4)cc3)C(=O)C2C1` (centres unmarked), which “% Inhibition @ 10 uM” value is on record?
**A.** -3.83%

**Q.** Which “% Inhibition @ 10 uM” value does the source give for `COc1ccc(CCNc2nn3nnnc3c3ccccc23)cc1OC` here?
**A.** 1.15%

**Q.** With `CCCc1[nH]nc2c1C(c1sccc1C)C(C#N)=C(N)O2` (centres unmarked) as the compound, how does the “% Inhibition @ 10 uM” value read?
**A.** -0.725%

**Q.** Which “% Inhibition @ 10 uM” value does the source give for `c1cncc(-c2nn3cnnc3s2)c1` here?
**A.** 5.43%

**Q.** How did the “% Inhibition @ 10 uM” value turn out when `O=C(c1ccccc1)c1cn(CC(=O)N2CCOCC2)c2ccccc12` was run?
**A.** -0.0735%

**Q.** Which “% Inhibition @ 10 uM” value does the source give for `COc1ccccc1OCC(=O)Nc1ccc(S(=O)(=O)N2CCCCCC2)cc1` here?
**A.** -0.425%

**Q.** `O=C(Nc1ccc(Br)cc1)/C(=C/c1cccnc1)NC(=O)c1ccccc1` was tested. Which “% Inhibition @ 10 uM” value did it give?
**A.** 2.08%

**Q.** Which “% Inhibition @ 10 uM” value does the source give for `Cc1cccc(N2C(=O)CC(NC3CCCCC3)C2=O)c1` (centres unmarked) here?
**A.** 1.78%

**Q.** `Cc1ccccc1C(=O)N1CCN(C/C=C/c2ccccc2)CC1` was tested. Which “% Inhibition @ 10 uM” value did it give?
**A.** -3.27% and 3.47%

**Q.** With `COc1ccc(OC)c(C2C3=C(O)CC(C)(C)CC3=NC(C)=C2C(=O)Nc2ccccc2F)c1` (centres unmarked) as the compound, how does the “% Inhibition @ 10 uM” value read?
**A.** -9.33%

**Q.** Which “% Inhibition @ 10 uM” value does the source give for `Cc1ccc2oc(=O)n(Cc3ccc(OC(C)C)cc3)c2c1` here?
**A.** 6.98%

**Q.** Which “% Inhibition @ 10 uM” value does the source give for `Cc1nn(-c2ccc(F)cc2)c(O)c1/C=N/c1c(C)nn(C)c1C` here?
**A.** -0.68%

**Q.** How did the “% Inhibition @ 10 uM” value turn out when `COc1ccc(-c2nc3ccccc3n2C)cc1OC` was run?
**A.** -4.07%

**Q.** Which “% Inhibition @ 10 uM” value does the source give for `CC12c3ccccc3C(c3ccccc31)C1C(=O)NN(c3ccccc3)C(=O)C12` (centres unmarked) here?
**A.** -0.759%

**Q.** For `COc1ccccc1/C=C/CN1CCN(c2ccc(Cl)cc2)CC1`, which “% Inhibition @ 10 uM” value is on record?
**A.** 0.0792%

**Q.** With `CC1CC(C)CN(S(=O)(=O)c2ccccc2[N+](=O)[O-])C1` (centres unmarked) as the compound, how does the “% Inhibition @ 10 uM” value read?
**A.** 3.53%

**Q.** Which “% Inhibition @ 10 uM” value does the source give for `CC(C)C(=O)Nc1ccc(NC(=O)c2cc(Br)ccc2Cl)cc1` here?
**A.** -7.34%

**Q.** `Cc1ccc(CCNc2c(-c3ccc(C(C)C)cc3)c(=O)c2=O)cc1` was tested. Which “% Inhibition @ 10 uM” value did it give?
**A.** -1.98%

**Q.** With `CCOc1ccc(C(=O)OC2CCCN(C)C2)cc1` (centres unmarked) as the compound, how does the “% Inhibition @ 10 uM” value read?
**A.** 3.8%

**Q.** With `Cc1ccc2nc(C)cc(Nc3ccc4c(c3)OCCO4)c2c1` as the compound, how does the “% Inhibition @ 10 uM” value read?
**A.** -1.84%

**Q.** For `CCOC(=O)c1ccc(-n2c(C)cc(C=C3C(=O)c4ccccc4C3=O)c2C)cc1`, which “% Inhibition @ 10 uM” value is on record?
**A.** 6.51%

**Q.** How did the “% Inhibition @ 10 uM” value turn out when `CCOc1ccc(NC(=O)C2CC(=O)N(C)/C(=N/c3ccc(OC)cc3)S2)cc1` (centres unmarked) was run?
**A.** -13.4%

**Q.** Which “% Inhibition @ 10 uM” value does the source give for `CC(C)Cn1c(-c2nonc2NC(=O)c2ccccc2Cl)nc2ccccc21` here?
**A.** -1.92%

**Q.** How did the “% Inhibition @ 10 uM” value turn out when `CCCSCCCNC(=O)Cn1nc(C)n2c(cc3sccc32)c1=O` was run?
**A.** -1.58%

**Q.** How did the “% Inhibition @ 10 uM” value turn out when `COc1ccc(CNC(=O)C2CCN(S(=O)(=O)N3CC(C)CC(C)C3)CC2)c(OC)c1` (centres unmarked) was run?
**A.** 3.59%

**Q.** `CCN(CC)CCCNC(=S)N1CCn2c(nc3ccccc32)C1` was tested. Which “% Inhibition @ 10 uM” value did it give?
**A.** 3.96%

**Q.** How did the “% Inhibition @ 10 uM” value turn out when `CC(C)(C)OC(=O)N1CCC(c2cc(O)n3ncc(C(=O)NC4CCCC4)c3n2)CC1` was run?
**A.** -1.03%

**Q.** For `COc1ccc(/C=C2\SC(=O)N(CC(=O)N3CCOCC3)C2=O)cc1Br`, which “% Inhibition @ 10 uM” value is on record?
**A.** 4.22%

**Q.** For `COc1ccc(C2(O)C[N+](c3ccc(Cl)cc3)=C3CCCCCN32)cc1` (centres unmarked), which “% Inhibition @ 10 uM” value is on record?
**A.** -1.4%

**Q.** With `COC(=O)c1ccc(C2C3=C(CC(C)(C)CC3=O)N(Cc3cccnc3)C3=C2C(=O)CC(C)(C)C3)cc1` as the compound, how does the “% Inhibition @ 10 uM” value read?
**A.** 1.91%

**Q.** With `COCCNC(=O)C1CCN(c2nnc(C)c3c(C)n(-c4ccc(OC)cc4)nc23)CC1` as the compound, how does the “% Inhibition @ 10 uM” value read?
**A.** 3.23%

**Q.** Which “% Inhibition @ 10 uM” value does the source give for `CN1CCN(CCCC(=O)c2ccc(F)cc2)CC1` here?
**A.** 2.23%

**Q.** `COc1cccc(C(C)NC(=O)c2cccc(OC)c2OC)c1` (centres unmarked) was tested. Which “% Inhibition @ 10 uM” value did it give?
**A.** 0.873%

**Q.** For `N#CCCn1c2c(c3ccccc31)CCC2`, which “% Inhibition @ 10 uM” value is on record?
**A.** -4.58%

**Q.** Which “% Inhibition @ 10 uM” value does the source give for `CC(C)(C)C(=O)CC(=O)Nc1cc([N+](=O)[O-])ccc1Cl` here?
**A.** 4.74%

**Q.** Which “% Inhibition @ 10 uM” value does the source give for `CC(C(=O)NCCCN(C)C1CCCCC1)n1ncn2cccc2c1=O` (centres unmarked) here?
**A.** -5.95%

**Q.** Which “% Inhibition @ 10 uM” value does the source give for `Cn1c(=O)c2c(nc3n2CCCN3C2CCCC2)n(C)c1=O` here?
**A.** -5.35%

**Q.** For `N#CCCn1c2c(c3ccccc31)CCCC2`, which “% Inhibition @ 10 uM” value is on record?
**A.** 1.44%

**Q.** With `CCCNC(=O)CN(c1ccc(F)cc1)S(=O)(=O)c1ccc2c(c1)OCCO2` as the compound, how does the “% Inhibition @ 10 uM” value read?
**A.** 3.65%

**Q.** `Cc1cc(=O)n(C(C)C(=O)N2CCc3ccccc3C2)c2c1c(C)nn2-c1ccccc1` (centres unmarked) was tested. Which “% Inhibition @ 10 uM” value did it give?
**A.** 3.33%

**Q.** How did the “% Inhibition @ 10 uM” value turn out when `Cc1ccc(-c2c(NC3CCCCCCC3)c(=O)c2=O)cc1` was run?
**A.** -1.69%

**Q.** For `Cc1ccc(S(=O)(=O)N(CC(=O)N2CCCCCC2)c2ccccc2Cl)cc1`, which “% Inhibition @ 10 uM” value is on record?
**A.** 3.06%

**Q.** `COc1cc(CNCc2ccccc2)ccc1OCCO` was tested. Which “% Inhibition @ 10 uM” value did it give?
**A.** -1.63%

**Q.** For `O=C1S/C(=C/c2cc3c(cc2Br)OCO3)C(=O)N1CN1CCOCC1`, which “% Inhibition @ 10 uM” value is on record?
**A.** -3.37%

**Q.** How did the “% Inhibition @ 10 uM” value turn out when `Cc1ccc(C)c(N(CC(=O)N2CCN(c3ccccc3)CC2)S(=O)(=O)c2ccccc2)c1` was run?
**A.** -2.94%

**Q.** Which “% Inhibition @ 10 uM” value does the source give for `CCOP(C)(=O)CN1CCCCC1` (centres unmarked) here?
**A.** -2.77%

**Q.** Which “% Inhibition @ 10 uM” value does the source give for `Cc1ccsc1CN1CCN(c2ccc(Cl)cc2)CC1` here?
**A.** -0.0404%

**Q.** Which “% Inhibition @ 10 uM” value does the source give for `Cc1cc(C)nc(SCCN2CCCC2)n1` here?
**A.** 4.03%

**Q.** For `C=CCNC(=O)CCCc1nnc2n3nc(-c4ccccc4)nc3c3ccccc3n12`, which “% Inhibition @ 10 uM” value is on record?
**A.** -1.21%

**Q.** `CC1(C)CC(=O)C2=C(C1)NC(=O)CC2c1cc2c(cc1Br)OCO2` (centres unmarked) was tested. Which “% Inhibition @ 10 uM” value did it give?
**A.** -7.98%

**Q.** How did the “% Inhibition @ 10 uM” value turn out when `N#C/C(=C(/O)c1ccco1)c1nc2ccccc2[nH]1` was run?
**A.** -0.142%

**Q.** For `CCOC(=O)c1[nH]c2ccccc2c1-n1cccc1`, which “% Inhibition @ 10 uM” value is on record?
**A.** -0.0309%

**Q.** How did the “% Inhibition @ 10 uM” value turn out when `CCCN(CCC)CCCNC(=O)Cc1noc2ccccc12` was run?
**A.** -1.08%

**Q.** With `CCc1c(O)n2nc(-c3ccccc3)ccc2[n+](-c2ccc(F)cc2)c1=O` as the compound, how does the “% Inhibition @ 10 uM” value read?
**A.** -0.496%

**Q.** `O=C(C1CCN(c2nc3ccc(Br)cc3s2)CC1)N1CCC2(CC1)OCCO2` was tested. Which “% Inhibition @ 10 uM” value did it give?
**A.** -1.6%

**Q.** How did the “% Inhibition @ 10 uM” value turn out when `O=C(CN1N=C(c2ccc(Cl)cc2)CCC1=O)NCCCN1CCC(Cc2ccccc2)CC1` was run?
**A.** 3.79%

**Q.** `COc1ccc(OCCn2cnc3ccccc32)cc1` was tested. Which “% Inhibition @ 10 uM” value did it give?
**A.** -0.366%

**Q.** How did the “% Inhibition @ 10 uM” value turn out when `CCn1cc(C2=NOC(C(=O)N3CCOCC3)C2)c(C)n1` (centres unmarked) was run?
**A.** -1.37%
